Here are results for 31 variants from the GPR68 mutational scans of Howard et al. (2025).

Scores with a large standard error are left out. Not listed are two conditions whose scores span a narrow range. Read del as a deletion of the residues named and ins as an insertion between two positions. For some of these results: The concentration of ogerin is not given here.

Sequences and labels used below:
B1: GPR68, Q15743 (parent)
chain: MGNITADNSSMSCTIDHTIHQTLAPVVYVTVLVVGFPANCLSLYFGYLQIKARNELGVYLCNLTVADLFYICSLPFWLQYVLQHDNWSHGDLSCQVCGILLYENIYISVGFLCCISVDRYLAVAHPFRFHQFRTLKAAVGVSVVIWAKELLTSIYFLMHEEVIEDENQHRVCFEHYPIQAWQRAINYYRFLVGFLFPICLLLASYQGILRAVRRSHGTQKSRKDQIQRLVLSTVVIFLACFLPYHVLLLVRSVWEASCDFAKGVFNAYHFSLLLTSFNCVADPVLYCFVSETTHRDLARLRGACLAFLTCSRTGRAREAYPLGAPEASGKSGAQGEEPELLTKLHPAFQTPNSPGSGGFPTGRLA

In data set [1] the parent is B1. Kind of data set: cAMP reporter score (Enrich2 score, wild type = 0); higher = more signal; HEK293T, FACS bins.
Variants of B1 are the subject of data set [2]. Nature of the data set: surface expression score (Enrich2 score, wild type = 0); higher = more signal; HEK293T, FACS bins.

Turning to I99_L100insGS, the cAMP reporter score in data set [1] (pH 5.5) was -0.409; in data set [1] (pH 6), -1.47; in data set [1] (pH 6.5, modulator: ogerin), -0.427.
As to G90E, the cAMP reporter score in data set [1] (pH 5.5) is -0.449; in data set [1] (pH 6) it was 0.511; in data set [1] (pH 6, modulator: ogerin) it was -1.08; in data set [1] (pH 6.5, modulator: ogerin) it was -0.951. The surface expression score in data set [2] turned out to be 0.359.
As for G90K, the cAMP reporter score in data set [1] (pH 5.5) is -0.961; in data set [1] (pH 6) it was -0.31; in data set [1] (pH 6, modulator: ogerin) it was -0.838; in data set [1] (pH 6.5, modulator: ogerin) it was -0.511. Further, in data set [2], the surface expression score was 1.74.
With G90D, the cAMP reporter score was 0.74 in data set [1] (pH 5.5); -0.456 in data set [1] (pH 6); 0.145 in data set [1] (pH 6, modulator: ogerin); -0.198 in data set [1] (pH 6.5, modulator: ogerin). Further, the surface expression score in data set [2] turned out to be 0.409.
G90R: the cAMP reporter score is -1.62 in data set [1] (pH 5.5); -0.908 in data set [1] (pH 6); -1.48 in data set [1] (pH 6, modulator: ogerin); -0.659 in data set [1] (pH 6.5, modulator: ogerin). The surface expression score in data set [2] is -0.668.
Take G90F: the cAMP reporter score in data set [1] (pH 5.5) was -0.872; in data set [1] (pH 6) it was -2.38; in data set [1] (pH 6.5, modulator: ogerin) it was 0.545. Besides, the surface expression score in data set [2] is -1.23.
For the variant G90M, the cAMP reporter score was -1.05 in data set [1] (pH 5.5); -0.539 in data set [1] (pH 6); 0.444 in data set [1] (pH 6, modulator: ogerin); -0.826 in data set [1] (pH 6.5, modulator: ogerin). Also, in data set [2], the surface expression score stood at 0.788.
Turning to G90T, the cAMP reporter score in data set [1] (pH 5.5) is -0.05; in data set [1] (pH 6) it was -0.924; in data set [1] (pH 6, modulator: ogerin), -0.193; in data set [1] (pH 6.5, modulator: ogerin) it was -0.683. Moreover, the surface expression score in data set [2] was found to be 0.253.
On to G90Y, for which the cAMP reporter score is -1.41 in data set [1] (pH 5.5); -0.622 in data set [1] (pH 6); -1.64 in data set [1] (pH 6, modulator: ogerin); -1.35 in data set [1] (pH 6.5, modulator: ogerin). Besides, the surface expression score in data set [2] is -0.465.
As to G90A, the cAMP reporter score is -0.202 in data set [1] (pH 5.5); -0.493 in data set [1] (pH 6); -0.395 in data set [1] (pH 6, modulator: ogerin); -0.662 in data set [1] (pH 6.5, modulator: ogerin). Moreover, the surface expression score in data set [2] was found to be 0.754.
Regarding G90Q, the cAMP reporter score in data set [1] (pH 5.5) is -1.83; in data set [1] (pH 6), -0.278; in data set [1] (pH 6, modulator: ogerin), -1.1; in data set [1] (pH 6.5, modulator: ogerin), -0.697. Moreover, in data set [2], the surface expression score is 0.843.
For G90L, in that order: -1.62, -0.634, -0.483, -0.884 and -0.037.
In the case of G90H, the cAMP reporter score in data set [1] (pH 5.5) is 0.149; in data set [1] (pH 6) it was -0.488; in data set [1] (pH 6, modulator: ogerin), -0.018; in data set [1] (pH 6.5, modulator: ogerin) it was 0.115. In addition, the surface expression score in data set [2] came to 1.35.
For G90P, in that order: 0.318, 0.157, 0.55, 0.794 and -1.39.
Regarding G90I, the cAMP reporter score in data set [1] (pH 5.5) was -0.3; in data set [1] (pH 6) it was -0.077; in data set [1] (pH 6, modulator: ogerin) it was -0.785; in data set [1] (pH 6.5, modulator: ogerin), -1.49. Besides, the surface expression score in data set [2] is -0.992.
Consider G90N, for which the cAMP reporter score in data set [1] (pH 5.5) was 0.13; in data set [1] (pH 6), -0.871; in data set [1] (pH 6, modulator: ogerin) it was -0.032; in data set [1] (pH 6.5, modulator: ogerin), -0.023. For the same variant, the surface expression score in data set [2] came out at 0.209.
With G90V, the cAMP reporter score in data set [1] (pH 5.5) was -1.15; in data set [1] (pH 6) it was -0.698; in data set [1] (pH 6, modulator: ogerin) it was -1.03; in data set [1] (pH 6.5, modulator: ogerin), -1.2. Moreover, in data set [2], the surface expression score turned out to be 0.145.
Turning to G90W, the cAMP reporter score in data set [1] (pH 5.5) is -1.47; in data set [1] (pH 6) it was -1.01; in data set [1] (pH 6, modulator: ogerin) it was -1.89; in data set [1] (pH 6.5, modulator: ogerin), -0.92. Also, the surface expression score in data set [2] is 0.648.
In the case of G90C, the cAMP reporter score was -0.19 in data set [1] (pH 5.5); -0.714 in data set [1] (pH 6); -0.088 in data set [1] (pH 6, modulator: ogerin); -0.715 in data set [1] (pH 6.5, modulator: ogerin). Also, the surface expression score in data set [2] amounted to 1.18.
As to C94_Q95insGS, the cAMP reporter score in data set [1] (pH 5.5) is -1.6; in data set [1] (pH 6), -0.838; in data set [1] (pH 6.5, modulator: ogerin) it was -1.15. The surface expression score in data set [2] was -0.995.
Turning to C94_Q95insGSG, the cAMP reporter score in data set [1] (pH 5.5) was -1.82; in data set [1] (pH 6), -1.63; in data set [1] (pH 6, modulator: ogerin), -2; in data set [1] (pH 6.5, modulator: ogerin), -1.14. In addition, the surface expression score in data set [2] is -1.79.
Turning to D91_L92insGS, the cAMP reporter score in data set [1] (pH 5.5) is -1.01; in data set [1] (pH 6), -1.4; in data set [1] (pH 6, modulator: ogerin) it was -1.68. For the same variant, in data set [2], the surface expression score is -0.934.
Consider N86F, for which the cAMP reporter score is -0.587 in data set [1] (pH 5.5); -0.89 in data set [1] (pH 6, modulator: ogerin); -2.44 in data set [1] (pH 6.5, modulator: ogerin). The surface expression score in data set [2] is -0.375.
As for N86R, the cAMP reporter score in data set [1] (pH 5.5) is -0.603; in data set [1] (pH 6), -0.696; in data set [1] (pH 6, modulator: ogerin) it was -1.48; in data set [1] (pH 6.5, modulator: ogerin), 0.144. The surface expression score in data set [2] stood at 1.03.
Take N86P: the cAMP reporter score in data set [1] (pH 5.5) is -1.67; in data set [1] (pH 6), -1.4; in data set [1] (pH 6, modulator: ogerin), -2.12; in data set [1] (pH 6.5, modulator: ogerin) it was -1.08. The surface expression score in data set [2] is -1.89.
As to N86V, the cAMP reporter score in data set [1] (pH 5.5) was -1.39; in data set [1] (pH 6) it was -0.546; in data set [1] (pH 6, modulator: ogerin), -0.927; in data set [1] (pH 6.5, modulator: ogerin), -1.27. Moreover, the surface expression score in data set [2] is -0.811.
In the case of N86S, the cAMP reporter score is -1.33 in data set [1] (pH 5.5); -0.152 in data set [1] (pH 6); -0.942 in data set [1] (pH 6, modulator: ogerin); -0.607 in data set [1] (pH 6.5, modulator: ogerin). For the same variant, the surface expression score in data set [2] was -0.194.
On to N86D, for which the cAMP reporter score was -0.291 in data set [1] (pH 5.5); 0.961 in data set [1] (pH 6); 0.218 in data set [1] (pH 6, modulator: ogerin); 0.193 in data set [1] (pH 6.5, modulator: ogerin). For the same variant, in data set [2], the surface expression score is -0.042.
N86T: the cAMP reporter score in data set [1] (pH 5.5) was -1.1; in data set [1] (pH 6), -0.809; in data set [1] (pH 6, modulator: ogerin) it was -0.629; in data set [1] (pH 6.5, modulator: ogerin), -1.72. Besides, the surface expression score in data set [2] was found to be 0.644.
Take N86W: the cAMP reporter score in data set [1] (pH 5.5) is -1.31; in data set [1] (pH 6) it was -0.403; in data set [1] (pH 6, modulator: ogerin), -1.24; in data set [1] (pH 6.5, modulator: ogerin) it was -0.72. In data set [2], the surface expression score is -1.82.
Regarding N86Y, the cAMP reporter score in data set [1] (pH 5.5) is -1.56; in data set [1] (pH 6), -1.04; in data set [1] (pH 6.5, modulator: ogerin), -1.63. In addition, in data set [2], the surface expression score was -0.603.
